This is an account of results in article PMC12820563.

Some of the results follow. The list includes weakly bound sequences.

For the test, the target named is T1, MBP-FoxP3dN (UniProt Q99JB6).
T1 sequence: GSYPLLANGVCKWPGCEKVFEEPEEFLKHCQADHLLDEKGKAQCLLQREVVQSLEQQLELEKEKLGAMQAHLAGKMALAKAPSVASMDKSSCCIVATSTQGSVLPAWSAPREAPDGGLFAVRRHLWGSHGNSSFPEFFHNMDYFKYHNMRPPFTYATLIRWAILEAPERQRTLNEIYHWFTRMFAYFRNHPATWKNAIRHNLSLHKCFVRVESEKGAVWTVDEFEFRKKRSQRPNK
Briefly: PD-seq (MBP pull-down with sequencing). The settings on record: 20 mM Tris-HCl pH 7.5, 100 mM NaCl, 1.5 mM MgCl2, 0.4 uM protein, 0.1 uM dsDNA library, 30 min, room temperature, amylose pull-down; high values mean tight binding; double strand, one strand shown.
As to “GATGATTGTTCTCCCAGCTGATGAATTATAATCTTCGAGTAAACAAATTTTCCTAATCTTTCTGTTCAAGCGCCATCTAC”, the binding signal (RPM ratio (pull-down/input)) worked out at 0.402.
In the case of “GATGATTGTTCTCCCAGCTGATGAATTCCGACGCTCGAGTAAACAAATTTTCCTAATCTTTCTGTTCAAGCGCCATCTAC” it was 0.455; in that of “GATGATTGTTCTCCCAGCTGATGAATTGAGCGAGTCGAGTAAACAAATTTTCCTAATCTTTCTGTTCAAGCGCCATCTAC”, 0.522; in that of “GATGATTGTTCTCCCAGCTGATGAATTAGCAGCTTCGAGTAAACAAATTTTCCTAATCTTTCTGTTCAAGCGCCATCTAC”, 0.529.
In the case of “GATGATTGTTCTCCCAGCTGATGAATTGGCCACTTCGAGTAAACAAATTTTCCTAATCTTTCTGTTCAAGCGCCATCTAC” it was 0.95; in that of “GATGATTGTTCTCCCAGCTGATGAATTGAACTCTTCGAGTAAACAAATTTTCCTAATCTTTCTGTTCAAGCGCCATCTAC”, 0.264.
In the case of “GATGATTGTTCTCCCAGCTGATGAATTGAAGGATTCGAGTAAACAAATTTTCCTAATCTTTCTGTTCAAGCGCCATCTAC” it was 0.266; in that of “GATGATTGTTCTCCCAGCTGATGAATTAAAGCGATCGAGTAAACAAATTTTCCTAATCTTTCTGTTCAAGCGCCATCTAC”, 0.663; in that of “GATGATTGTTCTCCCAGCTGATGAATTTGTGGGATCGAGTAAACAAATTTTCCTAATCTTTCTGTTCAAGCGCCATCTAC”, 1.41.
As for “GATGATTGTTCTCCCAGCTGATGAATTTAAATTCTCGAGTAAACAAATTTTCCTAATCTTTCTGTTCAAGCGCCATCTAC”, the binding signal (RPM ratio (pull-down/input)) worked out at 0.45.
Take “GATGATTGTTCTCCCAGCTGATGAATTGGTCTCCTCGAGTAAACAAATTTTCCTAATCTTTCTGTTCAAGCGCCATCTAC”: the binding signal (RPM ratio (pull-down/input)) was determined as 0.361.
As for “GATGATTGTTCTCCCAGCTGATGAATTACATCTCTCGAGTAAACAAATTTTCCTAATCTTTCTGTTCAAGCGCCATCTAC”, the binding signal (RPM ratio (pull-down/input)) was 0.727.
In the case of “GATGATTGTTCTCCCAGCTGATGAATTTCGTTCTTCGAGTAAACAAATTTTCCTAATCTTTCTGTTCAAGCGCCATCTAC” it was 0.565; in that of “GATGATTGTTCTCCCAGCTGATGAATTCCGTAGATCGAGTAAACAAATTTTCCTAATCTTTCTGTTCAAGCGCCATCTAC”, 0.337; in that of “GATGATTGTTCTCCCAGCTGATGAATTGAAGAATTCGAGTAAACAAATTTTCCTAATCTTTCTGTTCAAGCGCCATCTAC”, 0.597.
In the case of “GATGATTGTTCTCCCAGCTGATGAATTTATATCCTCGAGTAAACAAATTTTCCTAATCTTTCTGTTCAAGCGCCATCTAC” it was 1.61; in that of “GATGATTGTTCTCCCAGCTGATGAATTCACAGGATCGAGTAAACAAATTTTCCTAATCTTTCTGTTCAAGCGCCATCTAC”, 0.199.
On to “GATGATTGTTCTCCCAGCTGATGAATTGATGGCCTCGAGTAAACAAATTTTCCTAATCTTTCTGTTCAAGCGCCATCTAC”, for which the binding signal (RPM ratio (pull-down/input)) was 0.732.
In the case of “GATGATTGTTCTCCCAGCTGATGAATTTCAGATATCGAGTAAACAAATTTTCCTAATCTTTCTGTTCAAGCGCCATCTAC” it was 0.319; in that of “GATGATTGTTCTCCCAGCTGATGAATTAGCACAGTCGAGTAAACAAATTTTCCTAATCTTTCTGTTCAAGCGCCATCTAC”, 0.346; in that of “GATGATTGTTCTCCCAGCTGATGAATTTTGAATTTCGAGTAAACAAATTTTCCTAATCTTTCTGTTCAAGCGCCATCTAC”, 1.67.
Turning to “GATGATTGTTCTCCCAGCTGATGAATTAGCAAAGTCGAGTAAACAAATTTTCCTAATCTTTCTGTTCAAGCGCCATCTAC”, the binding signal (RPM ratio (pull-down/input)) was determined as 0.236.
For “GATGATTGTTCTCCCAGCTGATGAATTCCCTGTTTCGAGTAAACAAATTTTCCTAATCTTTCTGTTCAAGCGCCATCTAC”, the binding signal (RPM ratio (pull-down/input)) was determined as 0.346.
Then “GATGATTGTTCTCCCAGCTGATGAATTTGCATTATCGAGTAAACAAATTTTCCTAATCTTTCTGTTCAAGCGCCATCTAC”, with 4.81; and “GATGATTGTTCTCCCAGCTGATGAATTCCCTCGATCGAGTAAACAAATTTTCCTAATCTTTCTGTTCAAGCGCCATCTAC”, with 0.23.
Then “GATGATTGTTCTCCCAGCTGATGAATTGAAAGTTTCGAGTAAACAAATTTTCCTAATCTTTCTGTTCAAGCGCCATCTAC”, with 0.264; and “GATGATTGTTCTCCCAGCTGATGAATTCATGGAATCGAGTAAACAAATTTTCCTAATCTTTCTGTTCAAGCGCCATCTAC”, with 0.239.
Then “GATGATTGTTCTCCCAGCTGATGAATTTTTACGATCGAGTAAACAAATTTTCCTAATCTTTCTGTTCAAGCGCCATCTAC”, with 0.226; and “GATGATTGTTCTCCCAGCTGATGAATTGCCACTATCGAGTAAACAAATTTTCCTAATCTTTCTGTTCAAGCGCCATCTAC”, with 2.31.
“GATGATTGTTCTCCCAGCTGATGAATTCAACTAATCGAGTAAACAAATTTTCCTAATCTTTCTGTTCAAGCGCCATCTAC”: the binding signal (RPM ratio (pull-down/input)) stood at 0.338.
In the case of “GATGATTGTTCTCCCAGCTGATGAATTGGTAGCTTCGAGTAAACAAATTTTCCTAATCTTTCTGTTCAAGCGCCATCTAC” it was 0.798; in that of “GATGATTGTTCTCCCAGCTGATGAATTGAGGATCTCGAGTAAACAAATTTTCCTAATCTTTCTGTTCAAGCGCCATCTAC”, 0.274; in that of “GATGATTGTTCTCCCAGCTGATGAATTTCCTAATTCGAGTAAACAAATTTTCCTAATCTTTCTGTTCAAGCGCCATCTAC”, 0.281.
As for “GATGATTGTTCTCCCAGCTGATGAATTAAAATTATCGAGTAAACAAATTTTCCTAATCTTTCTGTTCAAGCGCCATCTAC”, the binding signal (RPM ratio (pull-down/input)) was determined as 0.442.
In the case of “GATGATTGTTCTCCCAGCTGATGAATTCAATGGTTCGAGTAAACAAATTTTCCTAATCTTTCTGTTCAAGCGCCATCTAC” it was 1.23.
In the case of “GATGATTGTTCTCCCAGCTGATGAATTAACGGGATCGAGTAAACAAATTTTCCTAATCTTTCTGTTCAAGCGCCATCTAC” it was 0.282; in that of “GATGATTGTTCTCCCAGCTGATGAATTGTAACTGTCGAGTAAACAAATTTTCCTAATCTTTCTGTTCAAGCGCCATCTAC”, 0.769.
As to “GATGATTGTTCTCCCAGCTGATGAATTGCCGTATTCGAGTAAACAAATTTTCCTAATCTTTCTGTTCAAGCGCCATCTAC”, the binding signal (RPM ratio (pull-down/input)) turned out to be 1.46.
In the case of “GATGATTGTTCTCCCAGCTGATGAATTATCGTCATCGAGTAAACAAATTTTCCTAATCTTTCTGTTCAAGCGCCATCTAC” it was 0.67; in that of “GATGATTGTTCTCCCAGCTGATGAATTTGCCTGATCGAGTAAACAAATTTTCCTAATCTTTCTGTTCAAGCGCCATCTAC”, 0.579; in that of “GATGATTGTTCTCCCAGCTGATGAATTGTCAGCTTCGAGTAAACAAATTTTCCTAATCTTTCTGTTCAAGCGCCATCTAC”, 0.463.
Then “GATGATTGTTCTCCCAGCTGATGAATTTGGGTCATCGAGTAAACAAATTTTCCTAATCTTTCTGTTCAAGCGCCATCTAC”, with 0.724; and “GATGATTGTTCTCCCAGCTGATGAATTACAAATGTCGAGTAAACAAATTTTCCTAATCTTTCTGTTCAAGCGCCATCTAC”, with 0.549; and “GATGATTGTTCTCCCAGCTGATGAATTTGACGATTCGAGTAAACAAATTTTCCTAATCTTTCTGTTCAAGCGCCATCTAC”, with 0.377.
“GATGATTGTTCTCCCAGCTGATGAATTTTCGAAGTCGAGTAAACAAATTTTCCTAATCTTTCTGTTCAAGCGCCATCTAC”: the binding signal (RPM ratio (pull-down/input)) came to 0.208.
On to “GATGATTGTTCTCCCAGCTGATGAATTCCCATCGTCGAGTAAACAAATTTTCCTAATCTTTCTGTTCAAGCGCCATCTAC”, for which the binding signal (RPM ratio (pull-down/input)) is 0.366.
Take “GATGATTGTTCTCCCAGCTGATGAATTGGCGCTTTCGAGTAAACAAATTTTCCTAATCTTTCTGTTCAAGCGCCATCTAC”: the binding signal (RPM ratio (pull-down/input)) is 1.23.
In the case of “GATGATTGTTCTCCCAGCTGATGAATTTTATCGCTCGAGTAAACAAATTTTCCTAATCTTTCTGTTCAAGCGCCATCTAC” it was 0.542; in that of “GATGATTGTTCTCCCAGCTGATGAATTCTTGTTTTCGAGTAAACAAATTTTCCTAATCTTTCTGTTCAAGCGCCATCTAC”, 1.83; in that of “GATGATTGTTCTCCCAGCTGATGAATTGGAGCAATCGAGTAAACAAATTTTCCTAATCTTTCTGTTCAAGCGCCATCTAC”, 1.66.
Then “GATGATTGTTCTCCCAGCTGATGAATTGGCTCATTCGAGTAAACAAATTTTCCTAATCTTTCTGTTCAAGCGCCATCTAC”, with 0.367; and “GATGATTGTTCTCCCAGCTGATGAATTCAATCTTTCGAGTAAACAAATTTTCCTAATCTTTCTGTTCAAGCGCCATCTAC”, with 0.304; and “GATGATTGTTCTCCCAGCTGATGAATTTTAGTATTCGAGTAAACAAATTTTCCTAATCTTTCTGTTCAAGCGCCATCTAC”, with 1.58.
Then “GATGATTGTTCTCCCAGCTGATGAATTTCCTCAGTCGAGTAAACAAATTTTCCTAATCTTTCTGTTCAAGCGCCATCTAC”, with 0.181; and “GATGATTGTTCTCCCAGCTGATGAATTAAGCCACTCGAGTAAACAAATTTTCCTAATCTTTCTGTTCAAGCGCCATCTAC”, with 5.24; and “GATGATTGTTCTCCCAGCTGATGAATTTGAATCATCGAGTAAACAAATTTTCCTAATCTTTCTGTTCAAGCGCCATCTAC”, with 0.702.
As for “GATGATTGTTCTCCCAGCTGATGAATTTATCCAATCGAGTAAACAAATTTTCCTAATCTTTCTGTTCAAGCGCCATCTAC”, the binding signal (RPM ratio (pull-down/input)) was determined as 0.496.
In the case of “GATGATTGTTCTCCCAGCTGATGAATTCCCCCCATCGAGTAAACAAATTTTCCTAATCTTTCTGTTCAAGCGCCATCTAC” it was 0.234.
In the case of “GATGATTGTTCTCCCAGCTGATGAATTGACTGTGTCGAGTAAACAAATTTTCCTAATCTTTCTGTTCAAGCGCCATCTAC” it was 0.621.
In the case of “GATGATTGTTCTCCCAGCTGATGAATTGACAGAATCGAGTAAACAAATTTTCCTAATCTTTCTGTTCAAGCGCCATCTAC” it was 0.263; in that of “GATGATTGTTCTCCCAGCTGATGAATTGGGTCACTCGAGTAAACAAATTTTCCTAATCTTTCTGTTCAAGCGCCATCTAC”, 0.546; in that of “GATGATTGTTCTCCCAGCTGATGAATTTGTGCTTTCGAGTAAACAAATTTTCCTAATCTTTCTGTTCAAGCGCCATCTAC”, 2.84.
For the sequence “GATGATTGTTCTCCCAGCTGATGAATTGAATCCATCGAGTAAACAAATTTTCCTAATCTTTCTGTTCAAGCGCCATCTAC”, the binding signal (RPM ratio (pull-down/input)) is 0.369.
